Data: publication PMC10561363
These are yes or no findings as the source states them, for the method shown. Binding seen in cells or lysates may run through a third protein. Some results given as binding are weak or reduced against the parent protein; the word gives no strength.

Chains of the proteins cited; added tags and fusions are not shown.
UniProt P23975: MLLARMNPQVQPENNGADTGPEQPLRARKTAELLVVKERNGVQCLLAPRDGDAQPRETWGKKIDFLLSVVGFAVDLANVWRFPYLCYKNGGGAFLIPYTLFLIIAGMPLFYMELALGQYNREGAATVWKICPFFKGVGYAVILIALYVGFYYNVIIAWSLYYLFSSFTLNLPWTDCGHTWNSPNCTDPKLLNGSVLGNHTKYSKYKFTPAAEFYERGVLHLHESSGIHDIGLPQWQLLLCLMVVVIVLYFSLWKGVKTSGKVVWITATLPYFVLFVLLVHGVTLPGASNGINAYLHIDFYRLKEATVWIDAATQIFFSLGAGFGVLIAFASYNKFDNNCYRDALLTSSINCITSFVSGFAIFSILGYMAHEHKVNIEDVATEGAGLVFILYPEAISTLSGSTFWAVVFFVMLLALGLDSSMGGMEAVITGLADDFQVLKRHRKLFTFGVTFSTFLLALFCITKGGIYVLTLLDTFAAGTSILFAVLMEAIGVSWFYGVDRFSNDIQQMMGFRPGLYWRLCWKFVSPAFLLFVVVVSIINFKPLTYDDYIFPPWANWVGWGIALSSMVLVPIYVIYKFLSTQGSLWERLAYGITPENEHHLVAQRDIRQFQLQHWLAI
UniProt P30531: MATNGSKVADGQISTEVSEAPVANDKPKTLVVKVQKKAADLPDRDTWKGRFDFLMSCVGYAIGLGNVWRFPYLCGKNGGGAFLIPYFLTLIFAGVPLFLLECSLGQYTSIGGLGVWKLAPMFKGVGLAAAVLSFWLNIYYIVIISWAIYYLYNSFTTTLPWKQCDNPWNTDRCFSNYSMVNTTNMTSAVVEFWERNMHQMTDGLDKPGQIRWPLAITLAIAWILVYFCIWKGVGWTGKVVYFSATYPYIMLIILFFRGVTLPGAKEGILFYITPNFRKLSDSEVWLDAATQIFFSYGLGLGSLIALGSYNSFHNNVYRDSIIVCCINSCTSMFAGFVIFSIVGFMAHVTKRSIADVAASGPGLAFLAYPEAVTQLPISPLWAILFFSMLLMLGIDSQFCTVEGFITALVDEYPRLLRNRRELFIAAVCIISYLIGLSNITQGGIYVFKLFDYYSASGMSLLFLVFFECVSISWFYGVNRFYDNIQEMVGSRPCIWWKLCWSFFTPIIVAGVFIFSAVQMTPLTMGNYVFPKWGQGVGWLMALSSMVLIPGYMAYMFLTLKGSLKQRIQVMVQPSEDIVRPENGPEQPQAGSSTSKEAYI
UniProt Q01959: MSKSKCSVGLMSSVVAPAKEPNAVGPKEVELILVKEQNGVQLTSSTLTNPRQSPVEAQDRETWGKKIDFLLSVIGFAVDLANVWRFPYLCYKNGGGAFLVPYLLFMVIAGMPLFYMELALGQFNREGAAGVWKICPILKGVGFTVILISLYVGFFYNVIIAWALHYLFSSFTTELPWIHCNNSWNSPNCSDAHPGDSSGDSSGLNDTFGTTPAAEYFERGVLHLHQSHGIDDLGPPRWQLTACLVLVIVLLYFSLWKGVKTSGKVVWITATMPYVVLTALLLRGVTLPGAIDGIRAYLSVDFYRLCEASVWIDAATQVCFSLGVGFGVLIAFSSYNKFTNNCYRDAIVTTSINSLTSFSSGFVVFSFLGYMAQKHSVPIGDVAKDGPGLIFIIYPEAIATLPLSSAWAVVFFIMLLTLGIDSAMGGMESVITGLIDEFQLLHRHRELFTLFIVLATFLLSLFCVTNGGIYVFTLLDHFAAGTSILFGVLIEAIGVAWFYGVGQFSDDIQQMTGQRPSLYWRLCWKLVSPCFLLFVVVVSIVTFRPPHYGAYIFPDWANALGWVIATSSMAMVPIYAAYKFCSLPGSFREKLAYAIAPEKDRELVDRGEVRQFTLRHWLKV

What was measured:
Experiment in all cases: co-IP; GFP-Trap agarose on lysates of HEK-293 cells stably expressing YFP-tagged transporters, 90 min at 4°C, co-IP lysis buffer; immunoblot; for YFP-hSERT also after control or MAD2 siRNA (BubR1 substantially reduced, β2-adaptin down by about 50%, p31^comet not significantly changed, HSP70 unaffected)
[1] = target: N-terminally YFP-tagged human norepinephrine transporter (human) (UniProt P23975)
[2] = target: YFP-tagged human GABA transporter 1 (human) (UniProt P30531)
[3] = target: N-terminally YFP-tagged human dopamine transporter (human) (UniProt Q01959)

Measured: binding

B1: p31^comet, endogenous (protein, UniProt Q15013 1-274)
chain: MAAPEAEVLSSAAVPDLEWYEKSEETHASQIELLETSSTQEPLNASEAFCPRDCMVPVVFPGPVSQEGCCQFTCELLKHIMYQRQQLPLPYEQLKHFYRKPSPQAEEMLKKKPRATTEVSSRKCQQALAELESVLSHLEDFFARTLVPRVLILLGGNALSPKEFYELDLSLLAPYSVDQSLSTAACLRRLFRAIFMADAFSELQAPPLMGTVVMAQGHRNCGEDWFRPKLNYRVPSRGHKLTVTLSCGRPSIRTTAWEDYIWFQAPVTFKGFRE
binds: all assays above
